# Among all 310,000 compounds or so, about 14,000 (4.5%) showed an effect of 50% or more. Effects have a minus sign here. Some of the results follow.
# Molecular target: human ether-à-go-go-related gene (hERG) potassium channel (human, UniProt Q12809)
# Test: primary screen, population patch clamp on CHO cells stably expressing hERG
# 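Further: peak tail current of the secondary pulse compared with the same well before compound.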
# human ether-à-go-go-related gene (hERG) potassium channel, sequence (Q12809 whole entry, looked up): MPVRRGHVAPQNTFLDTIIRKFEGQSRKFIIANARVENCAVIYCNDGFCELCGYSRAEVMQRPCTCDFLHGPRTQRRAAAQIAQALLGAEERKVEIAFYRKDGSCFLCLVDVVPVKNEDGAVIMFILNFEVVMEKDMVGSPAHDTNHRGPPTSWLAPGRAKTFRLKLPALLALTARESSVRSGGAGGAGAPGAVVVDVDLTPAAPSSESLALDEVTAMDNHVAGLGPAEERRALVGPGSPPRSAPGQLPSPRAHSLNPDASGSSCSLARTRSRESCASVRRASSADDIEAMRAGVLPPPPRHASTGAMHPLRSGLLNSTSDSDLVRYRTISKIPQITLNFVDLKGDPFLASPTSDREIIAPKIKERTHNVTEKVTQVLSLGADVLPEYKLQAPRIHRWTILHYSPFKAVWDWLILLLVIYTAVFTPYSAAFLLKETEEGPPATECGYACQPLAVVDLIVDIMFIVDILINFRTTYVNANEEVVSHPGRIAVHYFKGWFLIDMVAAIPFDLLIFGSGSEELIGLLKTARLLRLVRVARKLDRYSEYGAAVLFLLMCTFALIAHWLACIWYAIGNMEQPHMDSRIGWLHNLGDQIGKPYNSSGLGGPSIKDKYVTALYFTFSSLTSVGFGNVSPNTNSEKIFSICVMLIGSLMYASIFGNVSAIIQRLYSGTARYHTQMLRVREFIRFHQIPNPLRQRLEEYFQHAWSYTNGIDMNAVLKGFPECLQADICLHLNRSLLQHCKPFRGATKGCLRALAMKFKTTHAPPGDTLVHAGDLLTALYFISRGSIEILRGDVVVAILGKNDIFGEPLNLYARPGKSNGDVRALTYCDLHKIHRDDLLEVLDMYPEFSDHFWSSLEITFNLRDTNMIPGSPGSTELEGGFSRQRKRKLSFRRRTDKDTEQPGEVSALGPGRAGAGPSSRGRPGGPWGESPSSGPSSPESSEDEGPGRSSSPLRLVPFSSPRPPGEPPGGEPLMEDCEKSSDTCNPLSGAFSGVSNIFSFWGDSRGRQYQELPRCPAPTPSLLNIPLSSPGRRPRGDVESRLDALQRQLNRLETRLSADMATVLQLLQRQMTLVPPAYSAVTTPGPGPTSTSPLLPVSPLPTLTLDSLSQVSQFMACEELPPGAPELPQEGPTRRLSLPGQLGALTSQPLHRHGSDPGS
row,Structure (SMILES),"hERG current change (%, negative = inhibition) at 10uM"
1,N#C/C(=C(/O)c1cccc(F)c1)c1nc2ccccc2s1,24.8%
2,CS(=O)(=O)c1ccccc1-c1nnc(NC(=O)COc2ccc(Cl)cc2)o1,-6.82%
3,COc1ccc(OC)c(/C=N/NC(=O)c2nnn(-c3nonc3N)c2-c2cccs2)c1,15.2%
4,COc1ccc(NC(=S)NNC(=O)CCn2cc([N+](=O)[O-])cn2)cc1,14.4%
5,O=C1NC[C@H](c2ccccc2)N(CCc2cccc3ccccc23)C1=O,-21%
6,COc1ccc(NC(=O)/C=C/c2ccc(OC(F)F)cc2)cn1,-24.7%
7,COC(=O)c1ccc(N=NNc2ccccc2)cc1,4.36%
8,COC(=O)C1=C(c2cc3ccccc3s2)C[C@@H]2CC[C@H]1N2C(=O)NCc1cccc2ccccc12,14.7%
9,O=C(NCCN1CCOCC1)c1ccc2ccccc2c1,12.8%
10,CC1(C)CC(NS(=O)(=O)c2ccc(Cl)cc2)CC(C)(C)N1,9.34%
11,O=C(CCOc1ccccc1)Nc1cccc(S(=O)(=O)Nc2ccccc2Cl)c1,-10.2%
12,O=C(O)/C=C/C(=O)N1CCN(c2ccc(F)cc2)CC1,7.05%
13,COc1ccc(/C=N/NC(=O)CSCc2ccc([N+](=O)[O-])cc2)cc1OC,-45.6%
14,Cc1ccc2c(c1)N(S(=O)(=O)c1ccc(F)cc1)C(C(C)(C)C)CO2 (stereo not drawn),11.4%
15,Cn1c(SCC(=O)Nc2ccc(C(N)=O)cc2)nc2c(c1=O)SCC2,13.7%
16,Oc1cc2c(cc1O)[C@H]1c3ccc(O)c(O)c3OC[C@@]1(O)C2,11%
17,Cc1ccc(O)c(N=NC2=C(O)CC(C)(C)CC2=O)c1,3.16%
18,COc1c2c(c(C)c3c1C(=O)OC3)O[C@@]1(C)CC[C@@]3(O)C(C)(C)OC(=O)CC[C@]3(C)[C@H]1C2,-1.16%
19,CC(=O)OCC(=O)Nc1c(C)cccc1C,4.71%
20,CC(C)=C1SC(N2CCN(c3cccc(C)c3)CC2)=NC1=O,-18.1%
21,Cc1ccc(S(=O)(=O)N2CCN(C(=O)CN3C(=O)NC4(CCCCC4)C3=O)CC2)c(C)c1,1.52%
22,CCOC(=O)[C@@H]1[C@H]2COc3ccccc3[C@@H]2N2C(=O)N(c3ccccc3)C(=O)[C@]12C,-12.8%
23,O=C(/C=C/c1ccccc1Cl)N1CCCN(C(=O)/C=C/c2ccccc2Cl)CC1,-26.1%
24,COc1ccc(Cl)cc1C(=O)NCc1ccco1,-9.57%
25,Cc1ccc(/C=N/c2sc3c(c2C#N)CCC3)o1,2.41%
26,CC(=O)N1CCCN(Cc2nc(C3(c4ccc(C)cc4)CCCC3)no2)CC1,22.3%
27,O=C(COC(=O)c1ccc(O)cc1)Nc1cccc(S(=O)(=O)N2CCCCC2)c1,-32.9%

row,Structure (SMILES),"hERG current change (%, negative = inhibition) at 10uM"
1,COc1ccc(N(C)S(=O)(=O)c2cccc3cccnc23)c(OC)c1,-1.31%
2,COc1ccc(N2CCN(C(=O)CN3C(=O)NC4(CCCc5ccccc54)C3=O)CC2)cc1 (stereo not drawn),-7.06%
3,C/C(=N\Nc1nccnc1Cl)c1ccc([N+](=O)[O-])cc1,-4.09%
4,CCn1c(N2CCN(C(=S)NCCc3ccccc3)CC2)nc2ccccc21,-50%
5,COc1ccccc1-n1c(SCC(=O)N2CCCCC2)nc(O)c(Cc2ccccc2)c1=O,9.43%
6,O=c1c(Br)c(N2CCOCC2)cnn1-c1ccccc1,30.3%
7,O=C(CSc1nnnn1Cc1ccccc1)Nc1ccc2c(c1)OCO2,2.53%
8,CCCCn1c(N)c(N(CC(C)C)C(=O)c2ccc(-n3c(C)ccc3C)cc2)c(=O)[nH]c1=O,14.4%
9,CN(C)c1nc(Oc2ccc(=O)[nH]n2)nc(N2CCOCC2)n1,4.14%
10,CCN(CC)c1ccc(C(=O)NNC(=O)c2ccc3c(=O)n4c(nc3c2)CCC4)cc1,5.8%
11,Cc1ccc(C2C(C(=O)O)c3ccccc3C(=O)N2C)o1 (stereo not drawn),7.24%
12,CCc1c(C)c2ccc(OCC(=O)NCC3CCC(C(=O)O)CC3)cc2oc1=O (stereo not drawn),8.26%
13,COCCn1c(SCC(=O)Nc2cccc(S(N)(=O)=O)c2)nc2ccccc21,6.48%
14,COC(=O)c1ccc(COC(=O)CCc2nc(-c3ccccc3)c(-c3ccccc3)o2)cc1,-20.9%
15,COc1ccc(-c2[nH]ncc2CN2CCN(Cc3cccs3)CC2)cc1F,-31.2%
16,Cc1c(C#N)c(NC(=O)CCl)n(Cc2ccc(F)cc2)c1C,12.8%
17,CN1CCN(C(=O)c2cc3nc(-c4ccc(Cl)cc4)cc(C(F)(F)F)n3n2)CC1,-5.1%
18,CC(=O)N1CCSc2ccc(S(=O)(=O)N3CCC(C)CC3)cc21,-13.7%
19,COc1ccccc1OCC(=O)OC/C(O)=C(\C#N)c1nc2ccccc2[nH]1,16.9%
20,COc1ccc(NS(=O)(=O)c2ccc(C)c(NC(=O)C3CCCO3)c2)cc1 (stereo not drawn),-22.5%
21,COc1cccc(C2=NN(C(=O)CCCC(=O)O)C(c3cccs3)C2)c1 (stereo not drawn),15%
22,O=C(O)c1ccc(S(=O)(=O)Nc2ccc3c(c2)OCCO3)cc1,-0.656%
23,O=C(Nc1ccc(NC(=O)c2ccco2)nc1)c1ccco1,18%
24,CCCCN(C)C(=O)C1CCCN(S(=O)(=O)c2ccc3c(c2)CC(C)N3C(=O)C2CC2)C1 (stereo not drawn),-26.8%
25,Cc1cc(NC(=O)c2cccs2)n(-c2ccccc2)n1,6.4%
26,Cc1ccc(C)c2[nH]c(=O)c(CN(CCCN(C)C)C(=O)NCc3ccccc3)cc12,-52.2%
27,COCCn1cc(C(=O)N2CCC(C)CC2)c2c3ccccc3n(C)c2c1=O,-27%

# Source: publication PMC4336329 (PLoS ONE, 2015)
